# Source: the supplement of paper PMC8728848
# The list shows a part of the results.
# B1: PFL (Pseudomonas fluorescens) (protein)
# chain: MSKYAVANQWGGSSAPWHPGGTWVLGARDNQNVVAIEIKSGDGGKSFTGTMTYAGEGPIGFKAQRTGQNQYNVENQWGGNDAPWHPGGKWVIGGRDNQNVIALSVTSSDGGKNLSGTNTYANEGPIGFRGQIE
# Assays:
# Assay in all cases: glycan array binding signal (z-score within array); higher = stronger binding
# Conditions in all cases: glycan notation: IUPAC condensed, linker removed
# [1] = target: Fuc(a1-2)Gal6S(b1-3)GlcNAc
# In short: (§1)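 Glycan array binding is given as a within-array Z-score, which can be read as non-binding when negative. The arrays, 3228 of them, came from the Consortium for Functional Glycomics database and were retained only where the protein sequence was available. Z-scores were averaged across arrays of the same protein sequence at different concentrations or buffers and across linkers.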
# [2] = target: Fuc(a1-2)Gal6S(b1-3)GlcNAc6S
# In short: as §1
# Fuc(a1-2)Gal6S(b1-4)Glc = target: Fuc(a1-2)Gal6S(b1-4)Glc
# In short: as §1
# [3] = target: Fuc(a1-2)Gal6S(b1-4)Glc6S
# In short: as §1
# Fuc(a1-2)[Gal(a1-3)]Gal = target: Fuc(a1-2)[Gal(a1-3)]Gal
# In short: as §1
# [4] = target: Fuc(a1-2)[Gal(a1-3)]Gal(b1-3)GalNAc
# In short: as §1
# [5] = target: Fuc(a1-2)[Gal(a1-3)]Gal(b1-3)GalNAc(b1-3)Gal(a1-4)Gal(b1-4)Glc
# In short: as §1
# [6] = target: Fuc(a1-2)[Gal(a1-3)]Gal(b1-3)GlcNAc
# In short: as §1
# [7] = target: Fuc(a1-2)[Gal(a1-3)]Gal(b1-3)GlcNAc(b1-2)Man(a1-3)[Fuc(a1-2)[Gal(a1-3)]Gal(b1-3)GlcNAc(b1-2)Man(a1-6)]Man(b1-4)GlcNAc(b1-4)GlcNAc
# In short: as §1
# [8] = target: Fuc(a1-2)[Gal(a1-3)]Gal(b1-3)GlcNAc(b1-2)Man(a1-3)[Fuc(a1-2)[Gal(a1-3)]Gal(b1-3)GlcNAc(b1-2)Man(a1-6)]Man(b1-4)GlcNAc(b1-4)[Fuc(a1-6)]GlcNAc
# In short: as §1
# [9] = target: Fuc(a1-2)[Gal(a1-3)]Gal(b1-3)GlcNAc(b1-3)GalNAc
# In short: as §1
# [10] = target: Fuc(a1-2)[Gal(a1-3)]Gal(b1-3)GlcNAc(b1-6)GalNAc
# In short: as §1
# [11] = target: Fuc(a1-2)[Gal(a1-3)]Gal(b1-4)Glc
# In short: as §1
# [12] = target: Fuc(a1-2)[Gal(a1-3)]Gal(b1-4)GlcNAc
# In short: as §1
# [13] = target: Fuc(a1-2)[Gal(a1-3)]Gal(b1-4)GlcNAc(b1-2)Man
# In short: as §1
# [14] = target: Fuc(a1-2)[Gal(a1-3)]Gal(b1-4)GlcNAc(b1-2)Man(a1-3)[Fuc(a1-2)[Gal(a1-3)]Gal(b1-4)GlcNAc(b1-2)Man(a1-6)]Man(b1-4)GlcNAc(b1-4)GlcNAc
# In short: as §1
# [15] = target: Fuc(a1-2)[Gal(a1-3)]Gal(b1-4)GlcNAc(b1-2)Man(a1-3)[Fuc(a1-2)[Gal(a1-3)]Gal(b1-4)GlcNAc(b1-2)Man(a1-6)]Man(b1-4)GlcNAc(b1-4)[Fuc(a1-6)]GlcNAc
# In short: as §1
# [16] = target: Fuc(a1-2)[Gal(a1-3)]Gal(b1-4)GlcNAc(b1-3)GalNAc
# In short: as §1
# [17] = target: Fuc(a1-2)[Gal(a1-3)]Gal(b1-4)GlcNAc(b1-3)[Fuc(a1-2)[Gal(a1-3)]Gal(b1-4)GlcNAc(b1-6)]GalNAc
# In short: as §1
# [18] = target: Fuc(a1-2)[Gal(a1-3)]Gal(b1-4)GlcNAc(b1-6)GalNAc
# In short: as §1
# [19] = target: Fuc(a1-2)[Gal(a1-3)]Gal(b1-4)[Fuc(a1-3)]Glc
# In short: as §1
# [20] = target: Fuc(a1-2)[Gal(a1-3)]Gal(b1-4)[Fuc(a1-3)]GlcNAc
# In short: as §1
# [21] = target: Fuc(a1-2)[Gal(a1-3)]Gal(b1-4)[Fuc(a1-3)]GlcNAc(b1-3)GalNAc
# In short: as §1
# [22] = target: Fuc(a1-2)[Gal(a1-4)]Gal(b1-4)GlcNAc
# In short: as §1
# [23] = target: Fuc(a1-2)[GalNAc(a1-3)]Gal
# In short: as §1
# [24] = target: Fuc(a1-2)[GalNAc(a1-3)]Gal(b1-3)GalNAc(a1-3)[Fuc(a1-2)]Gal(b1-4)GlcNAc
# In short: as §1
# [25] = target: Fuc(a1-2)[GalNAc(a1-3)]Gal(b1-3)GalNAc(b1-3)Gal(a1-4)Gal(b1-4)Glc
# In short: as §1
# [26] = target: Fuc(a1-2)[GalNAc(a1-3)]Gal(b1-3)GlcNAc
# In short: as §1
# [27] = target: Fuc(a1-2)[GalNAc(a1-3)]Gal(b1-3)GlcNAc(b1-2)Man(a1-3)[Fuc(a1-2)[GalNAc(a1-3)]Gal(b1-3)GlcNAc(b1-2)Man(a1-6)]Man(b1-4)GlcNAc(b1-4)GlcNAc
# In short: as §1
# [28] = target: Fuc(a1-2)[GalNAc(a1-3)]Gal(b1-3)GlcNAc(b1-2)Man(a1-3)[Fuc(a1-2)[GalNAc(a1-3)]Gal(b1-3)GlcNAc(b1-2)Man(a1-6)]Man(b1-4)GlcNAc(b1-4)[Fuc(a1-6)]GlcNAc
# In short: as §1
# [29] = target: Fuc(a1-2)[GalNAc(a1-3)]Gal(b1-3)GlcNAc(b1-3)GalNAc
# In short: as §1
# [30] = target: Fuc(a1-2)[GalNAc(a1-3)]Gal(b1-3)GlcNAc(b1-6)GalNAc
# In short: as §1
# [31] = target: Fuc(a1-2)[GalNAc(a1-3)]Gal(b1-4)Glc
# In short: as §1
# [32] = target: Fuc(a1-2)[GalNAc(a1-3)]Gal(b1-4)GlcNAc
# In short: as §1
# [33] = target: Fuc(a1-2)[GalNAc(a1-3)]Gal(b1-4)GlcNAc(b1-2)Man
# In short: as §1
# [34] = target: Fuc(a1-2)[GalNAc(a1-3)]Gal(b1-4)GlcNAc(b1-2)Man(a1-3)[Fuc(a1-2)[GalNAc(a1-3)]Gal(b1-4)GlcNAc(b1-2)Man(a1-6)]Man(b1-4)GlcNAc(b1-4)GlcNAc
# In short: as §1
# [35] = target: Fuc(a1-2)[GalNAc(a1-3)]Gal(b1-4)GlcNAc(b1-2)Man(a1-3)[Fuc(a1-2)[GalNAc(a1-3)]Gal(b1-4)GlcNAc(b1-2)Man(a1-6)]Man(b1-4)GlcNAc(b1-4)[Fuc(a1-6)]GlcNAc
# In short: as §1
# [36] = target: Fuc(a1-2)[GalNAc(a1-3)]Gal(b1-4)GlcNAc(b1-3)Gal(b1-4)GlcNAc
# In short: as §1
# [37] = target: Fuc(a1-2)[GalNAc(a1-3)]Gal(b1-4)GlcNAc(b1-3)Gal(b1-4)GlcNAc(b1-3)Gal(b1-4)GlcNAc
# In short: as §1
# [38] = target: Fuc(a1-2)[GalNAc(a1-3)]Gal(b1-4)GlcNAc(b1-3)GalNAc
# In short: as §1
# [39] = target: Fuc(a1-2)[GalNAc(a1-3)]Gal(b1-4)GlcNAc(b1-3)[Fuc(a1-2)[GalNAc(a1-3)]Gal(b1-4)GlcNAc(b1-6)]GalNAc
# In short: as §1
# [40] = target: Fuc(a1-2)[GalNAc(a1-3)]Gal(b1-4)GlcNAc(b1-6)GalNAc
# In short: as §1
# [41] = target: Fuc(a1-2)[GalNAc(a1-3)]Gal(b1-4)[Fuc(a1-3)]GlcNAc
# In short: as §1
# [42] = target: Fuc(a1-2)[GalNAc(a1-3)]Gal(b1-4)[Fuc(a1-3)]GlcNAc(b1-3)GalNAc
# In short: as §1
# [43] = target: Fuc(a1-2)[GalNAc(a1-4)]Gal(b1-4)GlcNAc
# In short: as §1
binder,measurement,setting,value
B1,glycan array binding signal (z-score),[1],-0.109
same,glycan array binding signal (z-score),[2],-0.103
same,glycan array binding signal (z-score),Fuc(a1-2)Gal6S(b1-4)Glc,-0.115
same,glycan array binding signal (z-score),[3],-0.092
same,glycan array binding signal (z-score),Fuc(a1-2)[Gal(a1-3)]Gal,-0.113
same,glycan array binding signal (z-score),[4],-0.11
same,glycan array binding signal (z-score),[5],-0.105
same,glycan array binding signal (z-score),[6],-0.114
same,glycan array binding signal (z-score),[7],0.083
same,glycan array binding signal (z-score),[8],0.415
same,glycan array binding signal (z-score),[9],-0.113
same,glycan array binding signal (z-score),[10],-0.105
same,glycan array binding signal (z-score),[11],-0.111
same,glycan array binding signal (z-score),[12],-0.104
same,glycan array binding signal (z-score),[13],-0.115
same,glycan array binding signal (z-score),[14],-0.073
same,glycan array binding signal (z-score),[15],0.21
same,glycan array binding signal (z-score),[16],-0.108
same,glycan array binding signal (z-score),[17],-0.103
same,glycan array binding signal (z-score),[18],-0.115
same,glycan array binding signal (z-score),[19],-0.113
same,glycan array binding signal (z-score),[20],-0.117
same,glycan array binding signal (z-score),[21],-0.111
same,glycan array binding signal (z-score),[22],-0.117
same,glycan array binding signal (z-score),[23],-0.114
same,glycan array binding signal (z-score),[24],-0.111
same,glycan array binding signal (z-score),[25],-0.113
same,glycan array binding signal (z-score),[26],-0.119
same,glycan array binding signal (z-score),[27],-0.046
same,glycan array binding signal (z-score),[28],0.249
same,glycan array binding signal (z-score),[29],-0.113
same,glycan array binding signal (z-score),[30],-0.117
same,glycan array binding signal (z-score),[31],-0.112
same,glycan array binding signal (z-score),[32],-0.117
same,glycan array binding signal (z-score),[33],-0.112
same,glycan array binding signal (z-score),[34],-0.08
same,glycan array binding signal (z-score),[35],0.043
same,glycan array binding signal (z-score),[36],-0.117
same,glycan array binding signal (z-score),[37],-0.107
same,glycan array binding signal (z-score),[38],-0.108
same,glycan array binding signal (z-score),[39],-0.103
same,glycan array binding signal (z-score),[40],-0.116
same,glycan array binding signal (z-score),[41],-0.111
same,glycan array binding signal (z-score),[42],-0.102
same,glycan array binding signal (z-score),[43],-0.116
